Measurements: the supplement of paper PMC3334620
In all, about 33,000 sequences were measured (“E-score (-0.5 to 0.5)”: median about -0.012, highest 2% from about 0.27 on). Some of the results follow.

Target: T1, Vhr1 (UniProt P40522)
T1 sequence: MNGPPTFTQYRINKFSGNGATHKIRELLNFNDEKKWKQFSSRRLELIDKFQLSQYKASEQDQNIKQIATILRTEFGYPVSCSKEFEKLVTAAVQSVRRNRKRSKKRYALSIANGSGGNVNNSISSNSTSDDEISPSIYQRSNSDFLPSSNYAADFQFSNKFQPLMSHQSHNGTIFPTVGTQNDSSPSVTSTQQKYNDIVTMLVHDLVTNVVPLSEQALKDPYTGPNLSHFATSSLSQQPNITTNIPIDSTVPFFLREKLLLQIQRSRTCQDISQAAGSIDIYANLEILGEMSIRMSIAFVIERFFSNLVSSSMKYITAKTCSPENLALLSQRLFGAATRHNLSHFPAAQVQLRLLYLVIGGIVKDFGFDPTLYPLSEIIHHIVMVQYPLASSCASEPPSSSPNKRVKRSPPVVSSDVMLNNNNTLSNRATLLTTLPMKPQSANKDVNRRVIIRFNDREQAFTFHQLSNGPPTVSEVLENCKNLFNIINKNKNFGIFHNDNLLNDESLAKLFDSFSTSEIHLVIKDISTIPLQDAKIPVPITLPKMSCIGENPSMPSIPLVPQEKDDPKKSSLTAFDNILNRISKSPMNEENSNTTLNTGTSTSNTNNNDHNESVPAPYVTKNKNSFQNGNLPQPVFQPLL
Assay: PBM E-score (8-mer binding enrichment) (E-score (-0.5 to 0.5)); higher = stronger / more preferred TF binding; most listed sequences are background and not binding sites
Details: protein concentration: 200 nM; construct: GST-full length
How it was run: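 Full-length yeast transcription factors or their DNA-binding domains, GST-tagged and expressed with PURExpress, were applied at about 100-200 nM to universal all-10-mer Agilent arrays. These arrays had been made double-stranded by primer extension on fresh or once-stripped slides. Detection used fluorescent anti-GST, normalisation used masliner, and E-scores for ungapped eight-base words pooled with reverse complements came from the Universal PBM Analysis Suite.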

Sequence	PBM E-score
ATTCACAG	-0.0154
ATGAGAGG	-0.0809
AGCCCGTA	-0.132
ACGAAGAA	0.126
AGAGCTTG	-0.146
GTACGATA	-0.0257
AACGTTTA	-0.151
GCCACTCC	0.205
TCAAAGGA	-0.146
CGCAATGC	0.0459
ACCACAGT	0.234
ATGTTATG	0.144
GAATCTAC	0.0109
CTTAGTTC	-0.132
ACCGTTCT	-0.161
AAGACGGC	-0.0605
GAGTGCAA	0.0799
ATTGTAAC	0.106
CCAGGACG	-0.186
GCAGGTCC	0.0837
CCACGAAC	0.101
ACATGACG	-0.0758
GTAGATAC	-0.0265
CACCACTA	0.171
CAGGACCC	-0.158

Sequence	PBM E-score
CGCAGTGA	0.0397
GACACGCA	0.2
ACTAAAAG	-0.0887
GCTAGATA	0.0455
GCAGAAAC	0.0133
AGATCGCG	0.0187
AAGTTACG	0.0571
CGAGAACC	-0.0949
CCCCTAGG	-0.167
GAGAGCAC	0.025
GACAGTAC	0.0522
GTATGGTA	0.249
TATAGTCA	0.318
CCAGACTC	0.0626
AAGCTGAG	0.0164
CTAAGAGA	-0.319
AGCAAGAC	-0.0506
CGGAGGAC	0.00537
AACGGGTA	0.14
AAAAGTAG	-0.122
CACCGACA	0.113
AGAGTGAG	0.138
ACTTGTCA	0.0667
AGACGCGA	0.00886
CTTGCGTA	-0.12

Sequence	PBM E-score
ACATCCCG	0.231
ACACGCCG	0.22
GTGCCCGA	-0.0982
AAGTACTG	-0.0527
AAACACAA	-0.206
ACAGCATC	-0.0795
AATGAGGA	-0.253
CTTGCAAG	0.0814
ATAGCGTA	-0.0276
ATATGTTA	-0.0934
TACCCTGA	-0.0328
CTGACGAC	0.0741
ATGGGAAG	-0.014
AACTTGTG	0.167
AGAATCTA	-0.0729
CGTCCAAA	-0.0449
AAACGATA	0.0452
ATTTTAGG	-0.0155
ATTAATTG	0.131
ACGTTCCC	-0.326
CCAATAGC	-0.146
CTGGACAG	0.0575
CACACCTC	0.285
CGCTGTGA	0.132
AGCCGGTA	0.00445

Sequence	PBM E-score
CCCCCCAG	-0.29
GGCTTGAC	-0.0961
ACAATGAA	0.0232
CGCGACGC	-0.00297
TCAAGCGA	-0.0594
CCGGCGCA	0.066
CAAGACAC	0.0277
CGTACTCA	0.283
GGGACAGA	0.0636
GATTACAA	-0.00266
ATTGGTCG	0.00817
AGTGCAAT	-0.0316
CCTCGCGC	-0.0292
CTCATAAA	-0.00613
ATACCTGA	0.187
CCTAGACA	-0.042
CGATTTGC	-0.0615
ATCTAGAG	-0.0639
ATCTATGA	0.135
AGGCCCCG	-0.311
CAGGTGAC	0.23
CGGTCCTC	-0.122
CGAAACTA	0.0681
GGTCATGA	0.239
ATGTGTAG	0.201

Sequence	PBM E-score
CTCGTGTA	0.147
GCGATCGC	0.266
GGAGGTAA	-0.169
AGAGCTCA	-0.0882
ACCTCATA	0.0842
CGTATGCA	0.164
CAGCCAGA	0.148
GAAAGCTC	-0.255
AAAAGAGT	-0.144
AGAGAGGC	-0.331
CAATATTG	0.0555
AGATTCAA	-0.133
AATTGTCA	0.091
CGGGGCCC	0.242
TAGACAGA	0.0315
ACCGATTG	0.0862
AACATGCT	0.0146
GTAACGAA	0.0425
CCCATACG	-0.0146
CCGCGGTA	0.153
CAACGAGA	-0.0109
GCTCTTAC	-0.0832
TGCTCAAA	-0.193
GAGGGTCA	-0.217
GTACATGA	0.143

Sequence	PBM E-score
CTGGCATA	0.172
TCTAGTCA	0.218
CACCACGC	-0.174
CAACGAGG	0.102
CATAAGCC	-0.00741
AATGCTCT	-0.224
CCCTCCTA	-0.0375
GCAAATAC	-0.0972
GACTGAGC	0.1
CATCATAC	0.216
ATTATCGA	0.045
GGGGTCGA	0.0657
ATATCGAG	0.0583
ACGAAGCA	0.00046
AAGCATAG	-0.171
ACAGTTGG	-0.02
GATGGAAC	-0.119
GCCTAGTA	0.0251
AGAGTTAC	0.0255
CATTATAA	-0.113
AATGTTTG	-0.116
AAAACGGA	0.0536
CGTATCAC	0.231
CATTGTAC	0.0227
GTTTCCTA	-0.206

Sequence	PBM E-score
ACAGCAAC	0.123
ATCCTAAG	-0.00139
CAGCGGGG	-0.0743
GATACAAA	0.0894
AAAGACGT	-0.22
CATGGTAG	0.207
AGAACGCT	-0.277
GACACGGA	0.00283
CCAATACG	-0.209
AAGAAATT	-0.267
GACCTACA	-0.0263
AAGCGTGG	0.0736
ACTTCAGC	-0.206
GGATTACC	0.0515
TGTGACAA	0.139
GATAGGAA	-0.0552
TTCCAGAA	-0.0741
CTTACCCA	0.104
CTGCAATA	0.00129
GAGATACA	0.145
AGGATCAG	-0.0775
CAGTTGAG	-0.0882
